# Positions count from the first letter of the chain named. Some of the results follow.
# T1: RBFOX1 RRM (Homo sapiens, UniProt Q9NWB1 109-208)
# T1 sequence: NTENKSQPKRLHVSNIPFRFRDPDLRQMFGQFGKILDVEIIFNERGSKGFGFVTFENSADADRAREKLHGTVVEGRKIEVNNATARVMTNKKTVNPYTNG
# B1: GGAGUCU (DNA:RNA)
# RNA: GGGAGACCGGAAUUCAGAUUGUCCGGAGUCUUUAAAUCCCGUCGUAGCCACCA
# DNA 1: CAATCTGAATTCCGGTCTCCC
# DNA 2: TGGTGGCTACGACGGGATT
# B2: CCUUUCG (DNA:RNA)
# RNA: B1 RNA with G25C, G26C, A27U, G28U, U31G
# DNA 1: CAATCTGAATTCCGGTCTCCC
# DNA 2: TGGTGGCTACGACGGGATT
# B3: AUUCCAA (DNA:RNA)
# RNA: GGGAGACCGGAAUUCAGAUUGUCCAUUCCAAUUAAAUCCCGUCGUAGCCACCA
# DNA 1: CAATCTGAATTCCGGTCTCCC
# DNA 2: TGGTGGCTACGACGGGATT
# B4: CCUACAA (DNA:RNA)
# RNA: B3 RNA with A25C, U26C, C28A
# DNA 1: CAATCTGAATTCCGGTCTCCC
# DNA 2: TGGTGGCTACGACGGGATT
# B5: AUGCAGU (DNA:RNA)
# RNA: B3 RNA with U27G, C29A, A30G, A31U
# DNA 1: CAATCTGAATTCCGGTCTCCC
# DNA 2: TGGTGGCTACGACGGGATT
# B6: CGUGGUC (DNA:RNA)
# RNA: B1 RNA with G25C, A27U, U29G, C30U, U31C
# DNA 1: CAATCTGAATTCCGGTCTCCC
# DNA 2: TGGTGGCTACGACGGGATT
# B7: ACUCCGU (DNA:RNA)
# RNA: B3 RNA with U26C, A30G, A31U
# DNA 1: CAATCTGAATTCCGGTCTCCC
# DNA 2: TGGTGGCTACGACGGGATT
# B8: GGCUCAA (DNA:RNA)
# RNA: B3 RNA with A25G, U26G, U27C, C28U
# DNA 1: CAATCTGAATTCCGGTCTCCC
# DNA 2: TGGTGGCTACGACGGGATT
# B9: CCGGAUC (DNA:RNA)
# RNA: B1 RNA with G25C, G26C, A27G, U29A, C30U, U31C
# DNA 1: CAATCTGAATTCCGGTCTCCC
# DNA 2: TGGTGGCTACGACGGGATT
# Biological target: T1, RBFOX1 RRM
# Test: EMSA; HiTS-Eq, 1 nM pool, 10 min; buffer printed only for the single-RNA assays: 10 mM Tris pH 7.5, 150 mM NaCl, 3.4 mM EDTA, 0.001% NP-40, 30 C
# Details: tags: His6 N-terminal (pET28a); label: 5' 32P
# Method in brief: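 These values rest on relative association constants, computed from read-count changes of each RNA species versus the control reaction and normalised to the cognate motif. Reads came from free RNA recovered by 8% native PAGE after purified RbFox RRM (wild type or mutant) at increasing concentrations was equilibrated for 10 min in 50 µL with 1 nM of a 5′-radiolabelled pool with 7 randomized nucleotides and DNA-annealed flanks.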
row,Binder,binding signal
1,B1,0.0284 KA relative to UGCAUGU
2,B2,0.0156 KA relative to UGCAUGU
3,B3,0.00175 KA relative to UGCAUGU
4,B4,0.00268 KA relative to UGCAUGU
5,B5,0.00999 KA relative to UGCAUGU
6,B6,0.017 KA relative to UGCAUGU
7,B7,0.00461 KA relative to UGCAUGU
8,B8,0.00157 KA relative to UGCAUGU
9,B9,0.0104 KA relative to UGCAUGU

# Reference: article PMC9911399, “Two distinct binding modes provide the RNA-binding protein RbFox with extraordinary sequence specificity”
